# PubChem BioAssay (NCI)
#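 These data come from cells grown in 96-well plates and exposed to compound for 48 hours at five concentrations. GI50 = concentration required for 50% inhibition of growth. Definition used: TGI = concentration required for complete inhibition of growth.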 Peptide text beside a SMILES is read from it. * marks the point of attachment. Boc = CC(C)(C)OC(=O)*; Bn = c1ccc(C*)cc1
# Test system: NCI-H322M lung
# Assay: growth of human tumour cells (NCI), 48 h
SMILES,TGI,GI50
Nc1cc(Cl)ccc1SSc1ccc(Cl)cc1N,36.6 µM,
CC(=O)N[C@@H](Cc1ccc(OP(=O)(O)O)cc1)C(=O)N[C@H]1CCC(=O)N2CCC[C@@H](C(=O)NCc3ccccc3)N2C1=O,> 25 µM,> 23.2 µM
CC1=CC(=O)N(n2c(Cc3ccc(Cl)cc3)n[nH]c2=O)C1=O,> 100 µM,
COc1ccc(OC)c(/C=C/c2ccnc3ccccc23)c1,17.5 µM,
CC(C)C(Sc1nc(-c2ccccc2)c(-c2ccccc2)[nH]1)c1n[nH]c(=S)n1-c1ccccc1 (stereo not drawn),> 100 µM,
COc1cc2c(c(OC)c1OC)-c1c(c3ccc([N+](=O)[O-])cc3c(=O)n1CCCN)C2=O,17.6 µM,9.57 µM
O=C(O)Cc1ccc(N=Nc2c(O)c(C(=O)O)cc3ccccc23)cc1,> 100 µM,
Cn1cc(C2=C(c3cn(CCCCCO)c4ccccc34)C(=O)NC2=O)c2ccccc21,19.9 µM,6.73 µM
O=C(O)c1cn(C2CC2)c2cc(N3CCN(Cc4c(O)ccc5ccccc45)CC3)c(F)cc2c1=O,> 100 µM,8.42 µM
CCOC(=O)N/N=C(\CC)OCC,> 100 µM,
[Cu+2].[NH-]C(CC(=O)O)C(=O)O.[NH-]C(CC(=O)O)C(=O)O (stereo not drawn),> 100 µM,38.3 µM
COC12OCCN(C)C1=CC(=O)C1(C)N=NCC12 (stereo not drawn),> 100 µM,
CCCC[C@H]1C(=O)O[C@H](C)[C@H](NC(=O)c2cccc(NC=O)c2OC)C(=O)O[C@@H](C)[C@@H]1OC(=O)CC(C)C (tested in a mixture with another compound),49.2 µM,
CCNc1nnc(-c2ccccc2Nc2ccccc2-c2nnc(NCC)s2)s1,> 100 µM,
Cn1c(=O)c(Oc2ccc(F)cc2F)cc2cnc(NC3CCOCC3)nc21,> 25 µM,> 25 µM
NC(=O)c1cc(Br)ccc1NC(=O)/C=C/c1ccccc1,> 100 µM,14.8 µM
COC(=O)/N=[N+](\[O-])C(c1ccccc1)c1ccccc1,> 100 µM,
CCOC(=O)C(NC(=O)CC)(Nc1ccc(F)cc1F)C(F)(F)F (stereo not drawn),> 100 µM,
CC(C)Cc1ccc(C(C)C(=O)NCc2ccc(Cn3c(=O)sn(CCCI)c3=O)cc2)cc1 (stereo not drawn),2.95 µM,1.54 µM
Cc1c2c(nn1-c1ccc(S(=O)(=O)NC(=S)NC(=O)c3ccccc3)cc1)-c1ccccc1CC2,81.4 µM,24.5 µM
CCOC(=O)C1SC(=Nc2ccc(Cl)cc2Cl)N=C1C (stereo not drawn),> 100 µM,
COc1ccc(Cn2cc3c(c2-c2cc(OC)c(OC)c(OC)c2)CCc2c(CO)noc2-3)cc1,38.8 µM,0.616 µM

SMILES,TGI,GI50
O=C1C(c2ccccc2)=C(c2ccccc2)C(c2ccc(Sc3ccc(C4=C(c5ccccc5)C(=O)C(c5ccccc5)=C4c4ccccc4)cc3)cc2)=C1c1ccccc1,> 100 µM,
C=CCCCC1(C)CCNC1=S (stereo not drawn),> 100 µM,
Cc1cc(=O)n2c3c(c4c(cc13)c(CN(C)C)cc(=O)n4C)OC2,> 100 µM,
CN(/N=C\c1ccnc2ccccc12)c1ccccc1,> 100 µM,
COc1ccc2nc3cccc([N+](=O)[O-])c3c(NC(C)CN(C)C)c2c1 (stereo not drawn),11.8 µM,2.73 µM
Cc1cc2c(cc1Cl)SC(NNC1=NCCN1)=NS2(=O)=O,> 10 µM,
Cc1[nH]nc2ncc(C(=O)N3CCC[C@H]3c3ccc(Cl)cc3)cc12,> 100 µM,> 100 µM
COC(=O)Cn1c(=O)oc2nc(-c3ccccc3)cc(C(F)(F)F)c21,> 100 µM,
COc1ccc(N=Cc2ccc(N(CCC#N)S(=O)(=O)c3ccccc3)cc2C)cc1,> 100 µM,
COc1ccccc1NC(=O)CC(=O)N1N=C(c2ccccc2)C(N=Nc2ccc(Cl)cc2)C1=O (stereo not drawn),> 100 µM,
COC(=O)C(c1ccc(OC)cc1)N1C(=O)[C@@H](NC(=O)c2ccccc2)[C@H]1[C@@H](C)O (stereo partly drawn),> 100 µM,
O=c1[nH]c2c(c(=O)[nH]1)C(c1ccc([N+](=O)[O-])cc1)c1c([nH]c(=O)[nH]c1=O)O2,> 100 µM,
CN1CC2=C(NC(=S)NC2c2ccccc2Cl)/C(=C/c2ccccc2Cl)C1 (stereo not drawn),> 100 µM,
CCC12C=CCN3CCC4(c5cc(C(c6ccc(OC)cc6)C6Cc7ccccc7N6)c(OC)cc5N(C)C4C(O)(C(=O)OC)C1O)C32 (stereo not drawn),> 100 µM,
CC(C)Cn1cnc2c(Cl)nc3ccccc3c21,> 100 µM,
O=[N+]([O-])C(/C=C(\Cl)[N+](=O)[O-])=C(N1CCCCC1)N1CCCCC1,> 100 µM,
Nc1ncn([C@H]2C[C@H](OP(=O)(O)OC[C@H]3O[C@@H](n4cnc5c(=O)[nH]c(N)nc54)C[C@@H]3O)[C@@H](CO)O2)c(=O)n1,> 100 µM,> 100 µM
Cc1sc2c(c1C)C(c1ccc(Cl)cc1)=N[C@@H](CC(=O)NCCCN1CCN(C)CC1)c1nnc(C)n1-2,> 100 µM,3.35 µM
Cc1ccccc1C(C(=O)NC1CCCCC1)N(C(=O)CNc1ncccc1F)c1cccc(F)c1 (stereo not drawn),> 100 µM,> 100 µM
COc1ccc2c(c1OC)C(=O)N/C2=C\c1c(CCN(C)C)cc2c(c1OC)OCO2,> 100 µM,
CCNCCNc1cc(-c2ccc(C(F)(F)F)cc2)c(C#N)c2nc3cc(Cl)c(Cl)cc3n12,3.05 µM,1.58 µM
COC(=O)C(=O)C(/C(=N/N)C(=O)Nc1ccccc1C(N)=O)c1nc2ccc([N+](=O)[O-])cc2[nH]c1=O (stereo not drawn),> 100 µM,

SMILES,TGI,GI50
COc1cc(C2OC[C@@H]3C(=O)OC[C@H]23)cc(O)c1OC (stereo partly drawn),> 100 µM,
CC(=O)n1[nH]c(=O)n(-c2ccccc2)c1=O,> 100 µM,
Oc1ccccc1/C=N\NC(=S)N/N=C/c1ccccc1O,11.7 µM,0.617 µM
O=C(CC1(O)C(=O)Nc2c(Cl)cc(Cl)cc21)c1ccc(F)cc1 (stereo not drawn),> 100 µM,
CCC1(c2ccc(N)cc2)CCC(=O)NC1=O (stereo not drawn),> 3870 µM,
CCCCCCCCCCOC(=O)NCCC,> 100 µM,
O=C1c2cc(F)ccc2-c2c1c1ccc([N+](=O)[O-])cc1c(=O)n2CCCBr,> 100 µM,41.9 µM
CNC(=O)C(CC(C)C)NC(=O)C(C)NC(=O)C(Cc1ccc(OCc2ccccc2)cc1)NC(=O)C(COCc1ccccc1)NC(=O)OC(C)(C)C (stereo not drawn) (Boc-S(Bn)Y(Bn)AL-NHMe; configuration not given here),> 100 µM,
Nc1nn(C(=O)Nc2c(F)cccc2F)c2ccccc12,> 100 µM,> 100 µM
Cc1cn(C2CCN(CC3COC(C)(C)O3)O2)c(=O)[nH]c1=O (stereo not drawn),> 100 µM,
Cc1cccc(C)c1N=Nc1ccc(O)c(CN(C)C)c1,> 100 µM,
O=C(Cc1nc2ccc([N+](=O)[O-])cc2[nH]c1=O)C(=O)Nc1ccccc1[N+](=O)[O-],> 100 µM,
Cn1c(-c2c(N)n(Cc3ccc(F)cc3)c3nc(C#N)c(C#N)nc23)nc2ccccc21,4.87 µM,0.625 µM
O=C(O)CN(c1ccc(F)cc1)S(=O)(=O)c1ccccc1,> 100 µM,
Cc1ccc(OCCOCCOCCOCCOCCOc2ccc(C)n(O)c2=S)c(=S)n1O,25.1 µM,0.0369 µM
CC(=O)OCC1OC(n2ncc(=O)[nH]c2=O)C(OC(C)=O)C1OC(C)=O (stereo not drawn),> 100 µM,
O=S(=O)(NCCCNc1cc(-c2cn(-c3ccccc3)nc2-c2cccc(O)c2)ccn1)c1ccc(Br)cc1,34 µM,3.93 µM
N#CC1=C(N)Oc2c(sc3c(Br)cccc23)C1c1ccc(Cl)cc1 (stereo not drawn),5.24 µM,1.03 µM
NC(N)=NS(=O)(=O)c1ccc(NC(=O)c2cccc3c(N)c4ccccc4nc23)cc1,> 100 µM,
O=C([CH-]C(=O)c1ccccc1)c1ccccc1.O=C([CH-]C(=O)c1ccccc1)c1ccccc1.O=C([CH-]C(=O)c1ccccc1)c1ccccc1.[Cl-].[Hf+4],> 100 µM,25.3 µM
